The campaign covered roughly 52,000 compounds. About 1,700 (3.3%) were called active. No stated cut-off is given here; in the data, active means survival mostly below about 52% (no sharp cut-off); inactive means mostly above about 56%. This is one part of the list.

The test system of the experiment is Wild type. The experiment is described as follows: S. aureus survival, RN4220 and DeltatarO strains – OD600, teichoic acid synthesis inhibitors, primary screen (AID 463173). The following applies: S. aureus RN4220 wild type/DeltatarO growth, OD600, 18 h, stronger effect = lower value, screened at 18.75 µg/mL (by protocol).
For `CCc1ccccc1NC(=O)Cn1nc2c3cc(F)ccc3n(Cc3cccc(C)c3)cc-2c1=O`, the survival was inactive: 71%.

As for `CCOC(=O)c1c(NC(=O)c2cc(-c3ccccc3OC)on2)sc(C)c1C`, the survival is inactive: 86%.

For `Cc1cc(NC(=O)C2CCN(S(=O)(=O)c3c(C)noc3C)CC2)ccc1Br`, the survival is inactive: 80%.

In the case of `Cc1cc(C)c2nc(N(Cc3cccnc3)C(=O)CCS(=O)(=O)c3ccccc3)sc2c1`, the survival is inactive: 59%.

In the case of `CC1=C(C(=O)Nc2cccnc2)C(c2ccc(F)cc2)n2nc(-c3cccc(C)c3)nc2N1` (stereo unspecified), the survival was inactive: 63%.

In the case of `COc1ccc(Nc2nc(C(=O)NCc3ccco3)cs2)cc1`, the survival is inactive: 127%.

Regarding `CCOc1ccc(-c2cn3c(n2)sc2cc(C(=O)NCCCN4CCCCCC4)ccc23)cc1`, the survival was active: -1%.

Turning to `CCc1ccc2oc(C(=O)NCC(c3ccc(OC)cc3)N3CCCCC3)c(C)c2c1` (stereo unspecified), the survival was inactive: 87%.

On to `COC1(OC)c2nonc2C(OC)(OC)c2nonc21`, for which the survival was inactive: 116%.

Consider `NC(=O)CSc1nnc(-c2ccc(S(=O)(=O)N3CCCC3)cc2)o1`, for which the survival was inactive: 108%.

As for `COc1ccccc1C(=O)Nc1ccc(NC(=O)c2ccccc2)nc1`, the survival is inactive: 101%.

As to `COc1ccc(-c2nc3nc(C)cc(C)n3c2Nc2c(C)cccc2C)cc1`, the survival is inactive: 60%.

`CCc1c(C)nc(SCC(=O)Nc2ccc3c(c2)OCCO3)[nH]c1=O`: the survival is inactive: 117%.

For `COc1ccccc1CNC(=O)C1(c2cccs2)CCOCC1`, the survival is inactive: 70%.

With `N#Cc1c[nH]n2c(NC3CCCCC3)c(-c3ccc(F)cc3)nc12`, the survival was inactive: 77%.

For `CCc1ccc(OCC(=O)Nc2ccc3c(c2)c2ccccc2n3CC)cc1`, the survival is inactive: 69%.

For `Cc1cccc(-n2ccnc2SCC(=O)Nc2cccc3ccccc23)c1`, the survival was inactive: 80%.

Take `CCc1ccc2[nH]cc(S(=O)(=O)c3ccc(C(C)C)cc3)c(=O)c2c1`: the survival is inactive: 72%.

For the molecule `Cc1cc(C)cc(OCCSc2nc3ccc(NC(=O)c4ccc5c(c4)OCO5)cc3s2)c1`, the survival was inactive: 82%.

Consider `O=C(COc1ccccc1Cl)Nc1ccc(OCc2cc(=O)n3ccsc3n2)cc1`, for which the survival was inactive: 95%.

Turning to `Oc1ccccc1-c1nc(-c2cccs2)c(-c2cccs2)[nH]1`, the survival is active: -11%.

For the molecule `COC(=O)c1ccccc1NC(=O)Cn1cnc2sc(C)c(S(=O)(=O)N3CCC(C)CC3)c2c1=O`, the survival is inactive: 73%.

In the case of `O=C(O)c1cccc(N(CCO)CCO)c1`, the survival was inactive: 115%.

Take `CCOc1ccc(C2C(=O)N(C3CCCCCC3)CC(=O)N2Cc2ccccc2)cc1OC` (stereo unspecified): the survival is inactive: 75%.

Regarding `COc1ccc(NC(=O)/C=C\C(=O)N(c2ccc(C(C)C)cc2)C(C(=O)NCc2ccco2)c2ccc(C)cc2)cc1` (stereo unspecified), the survival was inactive: 76%.

On to `Cc1nc2ccccn2c(=O)c1NC(=O)c1cccc(F)c1`, for which the survival is inactive: 73%.

Take `COc1cc(NC(=O)C(F)(F)F)c(OC)cc1Br`: the survival was inactive: 120%.

As for `CCOC(=O)c1cccc(NC(=O)c2ncoc2-c2ccco2)c1`, the survival is inactive: 135%.

For the molecule `Cc1ccc(NC(=O)C2(C)Cc3ccccc3C(=O)O2)c(C)c1` (stereo unspecified), the survival was inactive: 108%.

In the case of `COc1ccc(CCNC(=O)c2ccc3c(c2)sc2nc(-c4ccccc4)cn23)cc1OC`, the survival was inactive: 69%.

Turning to `Cc1ccccc1N(C)S(=O)(=O)c1nnc(NC(=O)c2ccco2)s1`, the survival is inactive: 94%.

On to `CCOC(=O)c1cc(-c2ccc(OC)cc2)n(CCC(=O)NCCc2ccccc2)c1C`, for which the survival was inactive: 88%.

For `COc1cccc(C(=O)NCCc2csc3nc(-c4ccccc4F)nn23)c1OC`, the survival is inactive: 70%.

With `Cc1ccc(CNC(=O)Cn2c(SCC(=O)Nc3ccc(F)cc3)nc3ccccc32)cc1`, the survival was inactive: 131%.

Regarding `Cc1cc(OCC(=O)NCCc2nc3ccccc3[nH]2)cc(C)c1Cl`, the survival was inactive: 65%.

As to `N#C/C(=C\c1ccc(-c2ccccc2)o1)C(=O)Nc1ccccc1`, the survival is inactive: 115%.

Consider `COc1cccc(C2NC(C(=O)O)Cc3c2[nH]c2ccccc32)c1` (stereo unspecified), for which the survival was inactive: 118%.

With `Cc1cc(C)c(S(=O)(=O)NCCS(=O)(=O)N2CCN(c3ccccc3)CC2)c(C)c1`, the survival was inactive: 78%.

As for `O=S(=O)(c1ccccc1)c1nc(-c2ccccc2Cl)oc1N1CCCCCC1`, the survival is active: 14%.

For `Cc1cccc(C(=O)N2CCc3cc(CNC(=O)c4cc5ccccc5[nH]4)ccc32)c1`, the survival was inactive: 72%.

Consider `CCn1nc(C)c(CCN(C)C(=O)Nc2cccc(Cl)c2C)c1C`, for which the survival was inactive: 79%.

For the molecule `Cc1ccc(CNC(=O)C(C)n2c(=O)cc(C(F)(F)F)c3c(C)nn(C)c32)cc1` (stereo unspecified), the survival was inactive: 76%.

For the molecule `COc1ccc(C(=O)NCC(C)C)c(OC)c1`, the survival is inactive: 111%.

With `CCS(=O)(=O)N1CCc2cc(C(=O)NCc3ccccc3OC)ccc21`, the survival is inactive: 79%.

For `CCOc1ccc(CCNC(=O)C2CCCN(S(=O)(=O)N(C)c3ccc(F)cc3)C2)cc1` (stereo unspecified), the survival is inactive: 87%.

Regarding `Cc1nnc(SCC(=O)N(C2CCCCC2)C2CCCCC2)[nH]c1=O`, the survival was inactive: 117%.

As to `O=C(NCc1ccccc1)C(=O)Nc1c2c(nn1-c1ccc(F)cc1)CSC2`, the survival was inactive: 82%.

`C1CCC(N2CCN(C3CCCC3)CC2)C1`: the survival was inactive: 104%.

As for `COc1cccc(NC(=O)C2CCN(c3ccc(Sc4ccc(C)cc4)nn3)CC2)c1`, the survival was inactive: 82%.

On to `CCn1cc(CNC(=O)c2cc(-c3ccc(C)cc3)nc3ccc(Br)cc23)c(C)n1`, for which the survival is inactive: 81%.

In the case of `COc1cccc(NC(=O)C2CCC(CNS(=O)(=O)c3ccc4c(c3)CCCC(=O)N4)CC2)c1` (stereo unspecified), the survival is inactive: 71%.

Take `Cc1ccccc1-c1nc2scc(CCNC(=O)c3ccco3)n2n1`: the survival is inactive: 82%.

Turning to `CCc1ccc2oc(-c3ccc(C)c(NC(=O)/C=C/c4ccco4)c3)nc2c1`, the survival was inactive: 75%.

For `Clc1ccccc1OCCSc1nnc(-c2cccs2)o1`, the survival is inactive: 65%.

`O=C(CSc1nc(=O)n(Cc2ccco2)c2c1CCC2)NCc1ccccc1`: the survival is inactive: 72%.

For `N#Cc1c(C(F)(F)F)cc(=O)n2c1[nH]c1ccccc12`, the survival was inactive: 44%.

`COc1ccc(N2CCN(C(=O)CSc3nnc4c5ccccc5n(CC(=O)O)c4n3)CC2)cc1`: the survival was inactive: 101%.

Turning to `Cc1sc2ncn(CC(=O)N3CCN(c4ccccc4F)CC3)c(=O)c2c1S(=O)(=O)N1CCC(C)CC1`, the survival is inactive: 91%.

As to `Cc1cccc(OCCSc2nnc(-c3cccs3)o2)c1`, the survival is inactive: 82%.

For `Cc1ccc2nc(/C(C#N)=C/c3ccccc3F)[nH]c2c1`, the survival was inactive: 46%.

Turning to `O=C(NC1CCCC1)c1ccc2c(=O)n(Cc3ccccc3)c(SCc3ccccc3F)nc2c1`, the survival was active: -3%.

For `COc1ccc(Cl)cc1-n1cc(-c2ccccc2)nc1SCC(=O)Nc1ccc(C)cc1`, the survival was inactive: 91%.

On to `COc1ccccc1CNC(=O)C1CCN(c2nc3ccc(C)cc3[nH]2)CC1`, for which the survival was inactive: 73%.

With `CCc1ccc(CNC(=O)CCCn2ccc3cc(S(=O)(=O)N4CCCC4)ccc32)cc1`, the survival is inactive: 63%.

As to `CCOc1ccc(CCNC(=O)c2cc3c(-c4ccccc4F)nn(C)c3s2)cc1`, the survival is inactive: 69%.

Consider `Cc1ccc(S(=O)(=O)c2nc(-c3ccc(F)cc3)oc2SCC(=O)NC2CCCCC2)cc1`, for which the survival is inactive: 139%.

Take `COc1ccc(-c2cc(-c3ccc(C)cc3)nc3c2COc2ccccc2-3)cc1`: the survival was inactive: 68%.

Regarding `CCC(Cn1nnc2ccccc2c1=O)NC(=O)Nc1ccccc1OC` (stereo unspecified), the survival was inactive: 93%.

As to `COc1ccc(CCNC(=O)c2ccc3c(c2)CCN3S(C)(=O)=O)cc1OC`, the survival is inactive: 103%.

`COc1ccc(Cn2cc(S(=O)(=O)c3ccc(C)cc3)c(=O)c3cc(F)ccc32)cc1`: the survival is inactive: 77%.

`Cc1nc(-c2ccc(S(=O)(=O)Nc3cc(Cl)ccc3C)cc2)co1`: the survival was inactive: 73%.

For the molecule `COc1ccc2c(CNCCc3ccc(SC)cc3)c(C(=O)O)n(Cc3ccc(F)cc3)c2c1`, the survival was inactive: 112%.

For the molecule `CCCOc1ccc(Cc2c(O)nc(N)[nH]c2=O)cc1C`, the survival was inactive: 114%.

Consider `COc1ccc2c(c1)c(=O)c(C(=O)c1ccccc1)cn2CC(=O)Nc1ccc2c(c1)OCO2`, for which the survival is inactive: 82%.

For the molecule `COc1ccc(/C=C(\NC(=O)c2ccccc2)C(=O)N2CCN(C)CC2)cc1`, the survival was inactive: 104%.

As for `O=c1c2ccccc2nc(/C=C/c2cccc3ccccc23)n1-c1ccc(F)cc1F`, the survival was inactive: 125%.

On to `CCOc1ccc(NC(=O)c2oc3ccccc3c2NC(=O)COc2cccc(OC)c2)cc1`, for which the survival was inactive: 85%.

For `Cc1cccc(CN2C(=O)c3ccccc3Sc3ccc(C(=O)NCc4ccco4)cc32)c1`, the survival is inactive: 75%.

Regarding `CCS(=O)(=O)c1ncc(Cl)c(C(=O)N2CCN(c3ccc(OC)cc3)CC2)n1`, the survival is inactive: 87%.

For `CCC(CC)C(=O)Nc1nnc(S(=O)(=O)N2CCCCCC2)s1`, the survival was inactive: 96%.

`CCC(Sc1nc2c(sc3ccccc32)c(=O)n1CCc1ccc(OC)c(OC)c1)C(=O)N(CC)CC` (stereo unspecified): the survival was inactive: 67%.

In the case of `NS(=O)(=O)c1ccc(CCNC(=O)C2CCN(c3ncnc4c3nc3n4CCCCC3)CC2)cc1`, the survival was inactive: 84%.

In the case of `Cc1ccc(CNC(=O)CCc2cn(C)c3ccccc23)cc1`, the survival is inactive: 65%.

As to `CC1CCN(S(=O)(=O)N2CCC(C(=O)NCc3ccccc3Cl)CC2)CC1`, the survival is inactive: 81%.

In the case of `COC(=O)c1ccc(Nc2ncnc3c2cnn3C)cc1`, the survival was inactive: 81%.

Turning to `Cc1cn2c(=O)cc(COC(=O)c3ccc(NC(=O)c4ccc(F)cc4)cc3)nc2s1`, the survival was inactive: 70%.

Consider `CCOC(=O)c1ccc(NC(=O)c2cnn3c(=O)c4c(n(CC)c23)CCN(Cc2ccc(OC)cc2)C4)cc1`, for which the survival is inactive: 70%.

`CC(Sc1nccn1C)C(=O)Nc1ccccc1C#N` (stereo unspecified): the survival is inactive: 79%.

For `CCN(CC)c1ccc(NC(=O)c2cc(C)nc3c2c(C)nn3-c2ccc(C)cc2)c(C)c1`, the survival is inactive: 95%.

Consider `COc1ccc(C2c3[nH]c4ccccc4c3CCN2C(=O)CCC2CCCC2)cc1` (stereo unspecified), for which the survival was inactive: 80%.

On to `COc1ccc(CNC(=O)Cc2c(C)c3cc4c(C)coc4cc3oc2=O)cc1OC`, for which the survival is inactive: 83%.

Source of the values: PubChem BioAssay AID463173 (ICCB-Longwood Screening Facility, Harvard Medical School, 2010).
